Measured values as given in publication PMC2646141.
Results are given in words; binding and its absence hold for the method and conditions named. For some assays here: In cells and extracts the contact can be indirect. Some binding calls cover weakened binding; strength is not graded here. Values belong to the substance of their own block, whether it stands above or below them.

Sequences of proteins named here, by UniProt entry; tags and fusion partners are left off. A change or cut given only in a name is not applied to a line headed by its entry.
UniProt Q9HC16: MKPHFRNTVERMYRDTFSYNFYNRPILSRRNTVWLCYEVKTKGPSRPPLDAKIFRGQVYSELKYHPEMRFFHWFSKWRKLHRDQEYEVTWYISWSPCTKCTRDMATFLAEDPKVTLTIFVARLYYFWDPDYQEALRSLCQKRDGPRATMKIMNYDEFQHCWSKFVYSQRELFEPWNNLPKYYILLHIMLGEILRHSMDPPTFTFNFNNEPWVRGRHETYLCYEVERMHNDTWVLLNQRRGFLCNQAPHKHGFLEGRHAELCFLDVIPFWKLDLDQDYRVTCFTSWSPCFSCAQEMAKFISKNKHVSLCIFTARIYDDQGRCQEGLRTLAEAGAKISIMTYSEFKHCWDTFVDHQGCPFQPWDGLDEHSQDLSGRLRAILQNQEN

Legend:
[1] = target: A3G R24A (human) (UniProt Q9HC16); test: cross-linking; cleared lysate of transfected 293T cells treated with BM(PEO)3 (cysteine-reactive, 18 Å linker), 20°C, 1 h, quenched with DTT; SDS-PAGE and immunoblot for A3G; ~80 kD species; no RNase A, or RNase A after the crosslinking
[2] = target: HA-tagged wild type A3G (human) (UniProt Q9HC16); test: co-IP; 293T cells co-transfected with pA3G-HA and a second A3G plasmid; cleared lysate (0.5% Triton X-100, 287 mM NaCl, pH 7.2); 3F10 anti-HA antibody and protein G- or A-agarose, 2 h at 4°C; aliquot without RNase A; immunoblot. In Figure 3A RNase A treatment substantially inhibited …
[3] = target: A3G R24A+R136A (human) (UniProt Q9HC16); test: cross-linking; cleared lysate of transfected 293T cells treated with BM(PEO)3 (cysteine-reactive, 18 Å linker), 20°C, 1 h, quenched with DTT; SDS-PAGE and immunoblot for A3G; ~80 kD species; no RNase A, or RNase A after the crosslinking
[4] = target: A3G R30A (human) (UniProt Q9HC16); test: as above
[5] = target: A3G R30A+R136A (human) (UniProt Q9HC16); test: as above
[6] = target: A3G W127Y (human) (UniProt Q9HC16); test: as above
[7] = target: A3G Y124F (human) (UniProt Q9HC16); test: as above
[8] = target: wild type APOBEC3G (A3G) bait (human) (UniProt Q9HC16); test: two-hybrid; yeast Y190; wild type A3G in the bait plasmid pGBKT7, wild type or mutant A3G in the prey plasmid pHB18; beta-galactosidase activity (chlorophenol red-beta-D-galactopyranoside), OD540, normalised to Tsg101 bait/Vps28 prey set at 4.0
[9] = target: HA-tagged wild type A3G (human) (UniProt Q9HC16); test: condition: only after treatment of the immunoprecipitate with RNase A; co-IP; as a2, but the bead-bound immunoprecipitate was treated with bovine pancreatic RNase A (30 min, room temperature) before the last washes
[10] = target: untagged A3G W127A (human) (UniProt Q9HC16); test: cross-linking; cleared lysate of transfected 293T cells treated with BM(PEO)3 (cysteine-reactive, 18 Å linker), 20°C, 1 h, quenched with DTT; SDS-PAGE and immunoblot for A3G; ~80 kD species; no RNase A, or RNase A after the crosslinking
[11] = target: untagged A3G Y124A (human) (UniProt Q9HC16); test: as above
[12] = target: untagged A3G Y315A (human) (UniProt Q9HC16); test: as above
[13] = target: untagged wild type APOBEC3G (A3G) (human) (UniProt Q9HC16); test: condition: only RNase A treatment prior to crosslinking; cross-linking; as a4, but RNase A (10 U) added to the lysate prior to BM(PEO)3

- binding [5]: binds weakly
- binding [2]: binds weakly
Substance: A3G R30A+R136A (from UniProt Q9HC16 1-384)

- binding [6]: binds
Substance: A3G W127Y (from UniProt Q9HC16 1-384)

- binding [8]: no binding
Substance: A3G Y124L prey (from UniProt Q9HC16 1-384)

- binding [8]: binds
Substance: A3G Y315A prey (from UniProt Q9HC16 1-384)

- binding [8]: binds
Substance: A3G Y315L prey (from UniProt Q9HC16 1-384)

Continued, substance first:

Substance: A3G R24A (from UniProt Q9HC16 1-384)
- binding [1]: binds
- binding [2]: binds

Substance: A3G R24A+R136A (from UniProt Q9HC16 1-384)
- binding [3]: binds weakly
- binding [2]: binds weakly

Substance: A3G R30A (from UniProt Q9HC16 1-384)
- binding [4]: binds
- binding [2]: binds

Substance: A3G Y124F (from UniProt Q9HC16 1-384)
- binding [7]: binds

Substance: A3G Y315F prey (from UniProt Q9HC16 1-384)
- binding [8]: binds

Substance: myc-tagged A3G (from UniProt Q9HC16 1-384)
- binding [9]: no binding

Substance: untagged A3G W127A (from UniProt Q9HC16 1-384)
- binding [10]: binds weakly

Substance: untagged A3G Y124A (from UniProt Q9HC16 1-384)
- binding [11]: binds weakly

Substance: untagged A3G Y315A (from UniProt Q9HC16 1-384)
- binding [12]: binds
- binding [2]: binds

Substance: untagged wild type APOBEC3G (A3G) (from UniProt Q9HC16 1-384)
- binding [13]: no binding
